According to patent US20250243260A1 (ALPINE IMMUNE SCIENCES, published 2025):

B1: CD80_182 variant CD80 IgV-Fc (E10G, V11W, E35G, M47L, A71G, Y87R) (Fc fusion)
chain: VIHVTKEVKGWATLSCGHNVSVEELAQTRIYWQKGKKMVLTMMSGDLNIWPEYKNRTIFDITNNLSIVILGLRPSDEGTYECVVLKREKDAFKREHLAEVTLSVKADGSGGGGS[omitted - human IgG4 Fc with S228P (EU numbers)]
B2: CD80_183 variant CD80 IgV-Fc (V11Y, T28Y, M47L, A71G, Y87R) (Fc fusion)
chain: VIHVTKEVKEYATLSCGHNVSVEELAQYRIYWQKEKKMVLTMMSGDLNIWPEYKNRTIFDITNNLSIVILGLRPSDEGTYECVVLKREKDAFKREHLAEVTLSVKADGSGGGGS[omitted - human IgG4 Fc with S228P (EU numbers)]
B3: CD80_184 variant CD80 IgV-Fc (V11Y, A26Q, M47L, A71G, Y87R) (Fc fusion)
chain: VIHVTKEVKEYATLSCGHNVSVEELQQTRIYWQKEKKMVLTMMSGDLNIWPEYKNRTIFDITNNLSIVILGLRPSDEGTYECVVLKREKDAFKREHLAEVTLSVKADGSGGGGS[omitted - human IgG4 Fc with S228P (EU numbers)]
B4: CD80_185 variant CD80 IgV-Fc (V11Y, T28Y, M47L) (Fc fusion)
chain: VIHVTKEVKEYATLSCGHNVSVEELAQYRIYWQKEKKMVLTMMSGDLNIWPEYKNRTIFDITNNLSIVILALRPSDEGTYECVVLKYEKDAFKREHLAEVTLSVKADGSGGGGS[omitted - human IgG4 Fc with S228P (EU numbers)]
B5: CD80_186 variant CD80 IgV-Fc (E7K, V11W, N63H, A71G, Y87K) (Fc fusion)
chain: VIHVTKKVKEWATLSCGHNVSVEELAQTRIYWQKEKKMVLTMMSGDMNIWPEYKNRTIFDITHNLSIVILGLRPSDEGTYECVVLKKEKDAFKREHLAEVTLSVKADGSGGGGS[omitted - human IgG4 Fc with S228P (EU numbers)]
B6: CD80_187 variant CD80 IgV-Fc (V11Y, H18Y, E35G, L85Q) (Fc fusion)
chain: VIHVTKEVKEYATLSCGYNVSVEELAQTRIYWQKGKKMVLTMMSGDMNIWPEYKNRTIFDITNNLSIVILALRPSDEGTYECVVQKYEKDAFKREHLAEVTLSVKADGSGGGGS[omitted - human IgG4 Fc with S228P (EU numbers)]
B7: CD80_188 variant CD80 IgV-Fc (E35D, V68L, L85E) (Fc fusion)
chain: VIHVTKEVKEVATLSCGHNVSVEELAQTRIYWQKDKKMVLTMMSGDMNIWPEYKNRTIFDITNNLSILILALRPSDEGTYECVVEKYEKDAFKREHLAEVTLSVKADGSGGGGS[omitted - human IgG4 Fc with S228P (EU numbers)]

target: CD28 on Jurkat/IL2-reporter cells (UniProt P10747 19-220, limits assumed); experiment: cell-based or functional assay

Compared with B1, B2 is higher in “Fold Increase over WT at 50 nM” value: 2.04 fold for the first, 3.54 fold for the second.

Compared with B3, B4 is lower in “Fold Increase over WT at 50 nM” value: 3.87 fold for the first, 2.71 fold for the second.

Compared with B5, B6 is higher in “Fold Increase over WT at 50 nM” value: 1.02 fold for the first, 1.57 fold for the second.

B7 was tested, and the “Fold Increase over WT at 50 nM” value was 1.29 fold.

Compared with B1, B2 is higher in “Rel. Luminescence Units (RLU) 2 nM” value: 2390 RLU for the first, 2850 RLU for the second.

Going from B3 to B4, the “Rel. Luminescence Units (RLU) 2 nM” value falls from 2970 RLU to 2770 RLU.

Going from B5 to B6, the “Rel. Luminescence Units (RLU) 2 nM” value falls from 2820 RLU to 2760 RLU.

In the case of B7, the “Rel. Luminescence Units (RLU) 2 nM” value is reported as 3160 RLU.

Going from B1 to B2, the “Rel. Luminescence Units (RLU) 10 nM” value rises from 2720 RLU to 5020 RLU.

Compared with B3, B4 is lower in “Rel. Luminescence Units (RLU) 10 nM” value: 5870 RLU for the first, 3810 RLU for the second.

First: B5
Second: B6
The “Rel. Luminescence Units (RLU) 10 nM” value of the first is lower: 2280 RLU for the first, 2720 RLU for the second.

For B7, the “Rel. Luminescence Units (RLU) 10 nM” value was 2890 RLU.

Going from B1 to B2, the “Rel. Luminescence Units (RLU) 50 nM” value rises from 4990 RLU to 8650 RLU.

First: B3
Second: B4
The “Rel. Luminescence Units (RLU) 50 nM” value of the first is higher: 9440 RLU for the first, 6610 RLU for the second.

First: B5
Second: B6
The “Rel. Luminescence Units (RLU) 50 nM” value of the first is lower: 2500 RLU for the first, 3830 RLU for the second.

With B7 the “Rel. Luminescence Units (RLU) 50 nM” value was 3150 RLU.

First: B1
Second: B2
The “Rel. Luminescence Units (RLU) 250 nM” value of the first is lower: 8260 RLU for the first, 10900 RLU for the second.

First: B3
Second: B4
The “Rel. Luminescence Units (RLU) 250 nM” value of the first is higher: 11200 RLU for the first, 8890 RLU for the second.

Compared with B5, B6 is higher in “Rel. Luminescence Units (RLU) 250 nM” value: 3270 RLU for the first, 5460 RLU for the second.

B7 was tested, and the “Rel. Luminescence Units (RLU) 250 nM” value was 4550 RLU.
